Screen size: about 310,000 compounds; about 14,000 (4.5%) showed an effect of 50% or more. Effects have a minus sign here. The list shows a part of the results.

The values that follow come from paper PMC4336329 (PLoS ONE, 2015).
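Also: peak tail current of the secondary pulse compared with the same well before compound.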

Chain of human ether-à-go-go-related gene (hERG) potassium channel (Q12809 whole entry, looked up): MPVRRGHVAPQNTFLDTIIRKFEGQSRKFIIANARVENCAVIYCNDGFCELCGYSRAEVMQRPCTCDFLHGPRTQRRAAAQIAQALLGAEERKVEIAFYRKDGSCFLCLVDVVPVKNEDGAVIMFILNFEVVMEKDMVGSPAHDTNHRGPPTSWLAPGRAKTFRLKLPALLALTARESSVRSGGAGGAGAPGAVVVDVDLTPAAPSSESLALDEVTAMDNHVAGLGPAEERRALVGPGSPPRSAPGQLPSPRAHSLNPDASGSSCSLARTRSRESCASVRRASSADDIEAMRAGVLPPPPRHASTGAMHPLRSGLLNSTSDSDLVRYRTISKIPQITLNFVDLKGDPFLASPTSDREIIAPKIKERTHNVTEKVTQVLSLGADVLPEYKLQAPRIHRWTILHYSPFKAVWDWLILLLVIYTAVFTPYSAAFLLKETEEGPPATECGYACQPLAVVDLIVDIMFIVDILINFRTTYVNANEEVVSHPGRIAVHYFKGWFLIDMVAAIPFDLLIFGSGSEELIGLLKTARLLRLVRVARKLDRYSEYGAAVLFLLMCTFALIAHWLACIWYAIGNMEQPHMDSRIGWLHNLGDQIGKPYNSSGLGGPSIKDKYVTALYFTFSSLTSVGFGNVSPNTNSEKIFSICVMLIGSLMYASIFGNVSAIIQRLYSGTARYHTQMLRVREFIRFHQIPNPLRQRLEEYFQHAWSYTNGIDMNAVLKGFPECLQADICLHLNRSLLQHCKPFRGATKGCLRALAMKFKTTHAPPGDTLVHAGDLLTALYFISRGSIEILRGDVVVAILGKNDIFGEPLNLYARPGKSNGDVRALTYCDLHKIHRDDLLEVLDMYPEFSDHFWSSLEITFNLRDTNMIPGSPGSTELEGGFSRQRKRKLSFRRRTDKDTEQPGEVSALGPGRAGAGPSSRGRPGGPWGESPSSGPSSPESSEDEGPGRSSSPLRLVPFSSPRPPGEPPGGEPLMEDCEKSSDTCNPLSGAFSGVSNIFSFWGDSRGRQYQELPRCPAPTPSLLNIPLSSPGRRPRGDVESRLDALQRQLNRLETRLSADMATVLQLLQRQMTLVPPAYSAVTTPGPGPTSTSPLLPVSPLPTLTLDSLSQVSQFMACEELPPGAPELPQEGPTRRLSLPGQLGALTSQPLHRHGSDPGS

The experiment concerns the target human ether-à-go-go-related gene (hERG) potassium channel (human, UniProt Q12809). Nature of the experiment: primary screen, population patch clamp on CHO cells stably expressing hERG.
In the case of `Cc1ccccc1C(=O)OCc1cnc(Cl)s1`, the “hERG current change (%, negative = inhibition) at 10uM” value is recorded as 12.7%.
With `COc1ccc(S(=O)(=O)N2CCCCCC2)cc1NS(=O)(=O)c1cc(C(=O)O)cc(C)c1C`, the “hERG current change (%, negative = inhibition) at 10uM” value is listed as -29.6%.
On to `CC(=O)c1cccc(NC(=O)CSc2nc(N3CCOCC3)nc(N3CCOCC3)n2)c1`, for which the “hERG current change (%, negative = inhibition) at 10uM” value is -6.79%.
In the case of `CC(C)C(=O)Nc1ccc(NC(=S)NC(=O)c2ccc([N+](=O)[O-])cc2)cc1`, the “hERG current change (%, negative = inhibition) at 10uM” value is -3.42%.
`O=C1c2ccccc2C(Nc2ccccc2F)N1c1cccnc1` (stereo not drawn): the “hERG current change (%, negative = inhibition) at 10uM” value was -15.6%.
`CN(C)c1nc(N/N=C\c2ccc(Cl)c([N+](=O)[O-])c2)nc(Nc2ccc(F)cc2)n1`: the “hERG current change (%, negative = inhibition) at 10uM” value is given as -3.19%.
For the compound `CCOC(=O)/C(C#N)=C/c1c(N2CCN(c3ccccc3)CC2)nc2ccccn2c1=O`, the “hERG current change (%, negative = inhibition) at 10uM” value was -24.5%.
`NP(=O)(OCCCc1ccccc1)c1ccccc1` (stereo not drawn): the “hERG current change (%, negative = inhibition) at 10uM” value is given as 10.9%.
As for `Cc1ccc2sc(NNC(=O)c3cc(-c4cccs4)nc4ccccc34)nc2c1C`, the figure is 16.3%; as for `Cc1cc(NC(=O)CSc2nc3ccccc3c(=O)n2C(C)c2ccccc2)no1` (stereo not drawn), 2.97%.
For `COc1ccc(OCc2nnc(SCc3ccc(C(=O)O)cc3)o2)cc1`, the “hERG current change (%, negative = inhibition) at 10uM” value was found to be 14.2%.
Consider `CCOc1ccc(NC(=O)N2CC=C(n3c(=O)[nH]c4ccccc43)CC2)cc1`, for which the “hERG current change (%, negative = inhibition) at 10uM” value is -8.9%.
Regarding `COc1ccccc1N1CCN(C(=O)C(=O)c2c[nH]c3ccccc23)CC1`, the “hERG current change (%, negative = inhibition) at 10uM” value came to 0.156%.
As for `CCOc1cccc(C(=O)Nc2ccc(N3CCN(S(C)(=O)=O)CC3)cc2)c1`, the figure is 16.9%; as for `COc1ccc(CCn2nc(C)c([N+](=O)[O-])c2C)cc1`, 8%.
In the case of `COc1cc(/C=N/NC(=O)c2cccc([N+](=O)[O-])c2)ccc1OCc1ccccc1`, the “hERG current change (%, negative = inhibition) at 10uM” value came out at 4.87%.
With `O=C(CCC(=O)c1ccc(F)cc1)Nc1cccc(Br)c1`, the “hERG current change (%, negative = inhibition) at 10uM” value is on record as 22%.
For `CN(CC(=O)Nc1ccc(OC(F)(F)F)cc1)C(=O)c1ccc(N2CCCC2=O)cc1`, the “hERG current change (%, negative = inhibition) at 10uM” value is listed as -25.9%.
In the case of `C=C(C)CNC(=S)NNC(=O)CCn1c2ccc(Cl)cc2c2cc(Cl)ccc21`, the “hERG current change (%, negative = inhibition) at 10uM” value is given as 6.82%.
For `O=C(OCC(=O)N(CCc1ccccc1)Cc1ccccc1)c1ccccc1O`, the “hERG current change (%, negative = inhibition) at 10uM” value is listed as -5.6%.
Turning to `CC1(NC(=O)CC(c2ccccc2)(c2ccccc2)c2ccccc2)CCN(CCCc2ccccc2)C1=O` (stereo not drawn), the “hERG current change (%, negative = inhibition) at 10uM” value was 21.4%.
As for `Brc1ccc(-n2cc(-c3ccccc3)c3c(NN4CCOCC4)ncnc32)cc1`, the figure is -15.7%; as for `CC(OC(=O)c1ccc(O)cc1)C(=O)Nc1cc(C(F)(F)F)ccc1Cl` (stereo not drawn), -11.2%.
For the compound `COc1ccc(Br)cc1S(=O)(=O)n1c([N+](=O)[O-])cnc1C`, the “hERG current change (%, negative = inhibition) at 10uM” value was determined as 22.3%.
Next, `COc1ccc(Nc2ccc(C(F)(F)F)cc2[N+](=O)[O-])cn1`: 17.9%; `CN(CC(=O)Nc1ccccc1Oc1ccccc1)Cc1ccccc1F.O=C(O)C(=O)O`: 5.39%; `CN(C)S(=O)(=O)c1ccc(NC(=O)CSc2ncnc3ccccc23)cc1`: -33.9%.
For `COC(=O)c1scc(C#N)c1N/N=C(\C#N)S(=O)(=O)c1ccc(Cl)cc1`, the “hERG current change (%, negative = inhibition) at 10uM” value was 2.59%.
Take `O=S(=O)(c1cccc2cccnc12)N(CCO)CCO`: the “hERG current change (%, negative = inhibition) at 10uM” value amounted to 22.5%.
For the compound `CCCCn1nnnc1SCC(=O)N1CCCC1`, the “hERG current change (%, negative = inhibition) at 10uM” value is given as 17.9%.
`CC(=O)N1c2ccccc2C(C)=CC1(C)C`: the “hERG current change (%, negative = inhibition) at 10uM” value came out at 13.2%.
As for `CC(C)CSc1nc2ccccc2[nH]1`, the “hERG current change (%, negative = inhibition) at 10uM” value came to 8.92%.
Next, `CC(Cc1cccnc1)NC(=O)c1ccccc1OC1CCN(S(C)(=O)=O)CC1` (stereo not drawn): 13.7%; `CCOC(=O)C1(Cc2cccc(Cl)c2)CCCN(C(=O)c2ccco2)C1` (stereo not drawn): -4.51%.
Next, `CCOC(=O)C(=O)N/N=C(/c1ccccc1)c1ccc(OC)cc1`: 5.41%; `O=C1Nc2ncccc2OC1CCCl` (stereo not drawn): 6.83%.
Next, `COc1cc(SC)ccc1C(=O)NCC1CCCCC1`: -8.33%; `Cc1ccccc1N=Nc1c(N)n[nH]c1N`: 10.5%; `COc1ccc(OC)c(NC(=O)COC(=O)c2ccc(OC)c(S(=O)(=O)N3CCOCC3)c2)c1`: -2.13%.
With `O=C(CSc1ccc2ccccc2n1)N/N=C/c1ccc(O)cc1`, the “hERG current change (%, negative = inhibition) at 10uM” value is -3.77%.
Next, `Cc1cccc(CNC(=O)CCc2nnc(C3CCCCC3)o2)c1`: 6.86%; `Cc1ccc(C(=O)Nc2ncc(Cc3ccccc3)s2)o1`: -3.61%.
In the case of `O=C(CSc1oc(-c2ccc(F)cc2)nc1S(=O)(=O)c1ccc(F)cc1)NCC1CCCO1` (stereo not drawn), the “hERG current change (%, negative = inhibition) at 10uM” value turned out to be 5.91%.
`Cc1cccc(Nc2nc(N)nc(CSc3nccc(C)n3)n2)c1`: the “hERG current change (%, negative = inhibition) at 10uM” value is reported as 7.29%.
`Cc1sc2nc[nH]c(=O)c2c1-c1ccc(F)cc1`: the “hERG current change (%, negative = inhibition) at 10uM” value is 19.8%.
Take `O=C(CCCC(=O)N(CC(=O)NC1CCCC1)c1cccc(F)c1)Nc1ccccn1`: the “hERG current change (%, negative = inhibition) at 10uM” value is recorded as 4.77%.
Regarding `Cc1nc(CNS(=O)(=O)c2cc(F)ccc2F)cs1`, the “hERG current change (%, negative = inhibition) at 10uM” value stood at 36.5%.
As to `COc1ccc(CNC(=O)c2cc(COc3c(F)cccc3F)on2)cc1OC`, the “hERG current change (%, negative = inhibition) at 10uM” value is -15.3%.
As for `CSc1nnc(-c2cc3c(s2)-c2ccccc2CC3)o1`, the figure is 9.92%; as for `CO.COC(=O)c1cccc(C(=O)Nc2cnc3ccccc3c2)n1`, -14.4%; as for `CCC(=O)N1CCN(c2ccccc2NC(=O)Cc2ccccc2)CC1`, -29.1%.
`CC1CCCCN1CCNC(=O)C1CCCN(S(=O)(=O)c2cccc3nsnc23)C1` (stereo not drawn): the “hERG current change (%, negative = inhibition) at 10uM” value is -18.9%.
For `CC1Cc2cc(/C(O)=C3/C(=O)C(=O)N(CCCn4ccnc4)C3c3ccc(Br)cc3)ccc2O1` (stereo not drawn), the “hERG current change (%, negative = inhibition) at 10uM” value came to 6.07%.
With `COc1ccc(CNC(=O)CC(NC(N)=O)c2ccccc2Cl)cc1OC` (stereo not drawn), the “hERG current change (%, negative = inhibition) at 10uM” value is given as 24.4%.
Regarding `O=C(CSc1ccc2c(c1)OCCO2)Nc1ccc(Br)cc1`, the “hERG current change (%, negative = inhibition) at 10uM” value is -4.08%.
Consider `Cc1ccc(Nc2nc(N)nc(CSc3nnnn3-c3ccccc3)n2)cc1`, for which the “hERG current change (%, negative = inhibition) at 10uM” value is 4.49%.
With `Cc1cccc(NC(=O)[C@@H](CC(C)C)NC(=O)[C@@H]2Cc3ccccc3CN2)c1`, the “hERG current change (%, negative = inhibition) at 10uM” value is recorded as -40.7%.
As to `COc1ccc(S(=O)(=O)N2CCCCCC2)cc1NC(=O)c1c2c(nc3ccccc13)CCN(Cc1ccccc1)C2`, the “hERG current change (%, negative = inhibition) at 10uM” value is listed as -21.8%.
Turning to `O=C(O)CC(NS(=O)(=O)Cc1ccccc1)c1cccc([N+](=O)[O-])c1` (stereo not drawn), the “hERG current change (%, negative = inhibition) at 10uM” value is on record as 16.3%.
In the case of `Cc1cc(C)n(-c2ccc(C(=O)O)cc2)n1`, the “hERG current change (%, negative = inhibition) at 10uM” value was found to be 20.9%.
As for `Cc1ccccc1NC1=NC(=S)N(c2ccccc2)C12CCOC(C)(C)C2` (stereo not drawn), the “hERG current change (%, negative = inhibition) at 10uM” value is on record as -1.44%.
Turning to `COCCCn1cc(C(=O)c2cc(Br)ccc2O)cc(C#N)c1=O`, the “hERG current change (%, negative = inhibition) at 10uM” value is recorded as -8.65%.
With `CCOc1cc(/C=N/Nc2nc(=O)[nH]nc2C)ccc1O`, the “hERG current change (%, negative = inhibition) at 10uM” value turned out to be 19.4%.
Turning to `O=C(Nc1ccc2c(c1)OCCO2)c1ccc(Cl)c(S(=O)(=O)N2CCCCC2)c1`, the “hERG current change (%, negative = inhibition) at 10uM” value is reported as -17.4%.
For the compound `CCC(C)(C(=O)NC1CCCCC1)N(Cc1ccco1)C(=O)c1cnccn1` (stereo not drawn), the “hERG current change (%, negative = inhibition) at 10uM” value is -11.3%.
Regarding `CCOC(=O)c1sc2ncnc(OC)c2c1C`, the “hERG current change (%, negative = inhibition) at 10uM” value was found to be 13.3%.
In the case of `Cc1ccc(NC(=O)c2ccco2)c(NC(=O)c2cccs2)c1`, the “hERG current change (%, negative = inhibition) at 10uM” value was found to be 1.05%.
For `O=C(NCC1c2ccccc2CCN1C(=O)CN1CCOCC1)C1CCCCC1` (stereo not drawn), the “hERG current change (%, negative = inhibition) at 10uM” value is -1.72%.
For `COCCNC(=S)N/N=C/c1ccccc1C(=O)O`, the “hERG current change (%, negative = inhibition) at 10uM” value is on record as 5.96%.
As to `COc1cccc2c1c(NC(=O)c1cc(C)on1)nn2C`, the “hERG current change (%, negative = inhibition) at 10uM” value was 6.59%.
As for `NC(=O)N/N=C/c1cccc(OCc2ccc(F)cc2)c1`, the figure is 9.99%; as for `Cc1occc1C(=O)N(C)Cc1nc(-c2ccccc2)no1`, -6.62%.
In the case of `C1COCCO1.CCOc1ccc(N2C(=O)CC(N(CCc3ccc(OC)c(OC)c3)C(=S)Nc3ccccc3)C2=O)cc1` (stereo not drawn), the “hERG current change (%, negative = inhibition) at 10uM” value is reported as -4.02%.
In the case of `C=CCOc1cccc(C(=O)N2CCCC(CCC(=O)NCc3ccccc3F)C2)c1` (stereo not drawn), the “hERG current change (%, negative = inhibition) at 10uM” value is on record as -12.6%.
Consider `CCN1CCN(C(=O)c2cc3ccc(OC)cc3[nH]2)CC1`, for which the “hERG current change (%, negative = inhibition) at 10uM” value is 0.841%.
Next, `O=S(=O)(Nc1ccc(-c2cnco2)cc1)c1ccccc1`: 7.62%.
With `COc1ccc(-n2c(SCC(=O)Nc3cc(C)on3)nc3c(c2=O)SCC3)cc1`, the “hERG current change (%, negative = inhibition) at 10uM” value stood at 12.1%.
With `Cc1ccc2nc3c(cc2c1)CC1(C(=O)N(C)C(=O)N(C)C1=O)C1COCCN31` (stereo not drawn), the “hERG current change (%, negative = inhibition) at 10uM” value was -24.9%.
Take `O=C(Nc1ccccc1)c1c(F)cccc1F`: the “hERG current change (%, negative = inhibition) at 10uM” value was found to be 6.44%.
As for `CCCNC(=S)N1CCC(C(=O)c2ccc(OC)cc2)CC1`, the figure is -17.6%; as for `CCOC(=O)C1=C(C)NC(=O)NC1c1ccc(OC(=O)c2ccco2)c(OC)c1` (stereo not drawn), 4.37%; as for `CCOc1ccc(-n2c(C)nc3cc(C(=O)NCc4ccco4)ccc32)cc1`, -15.2%.
`Cc1ccc(S(=O)(=O)N(c2ccccc2)C2CCS(=O)(=O)C2)cc1` (stereo not drawn): the “hERG current change (%, negative = inhibition) at 10uM” value was 4.59%.
Regarding `COc1ccc(CCNC(=O)Oc2ccccc2)cc1OC`, the “hERG current change (%, negative = inhibition) at 10uM” value is recorded as 14.1%.
Take `COCCn1c(=NC(=O)C(C)(C)C)sc2cc([N+](=O)[O-])ccc21`: the “hERG current change (%, negative = inhibition) at 10uM” value is 2.96%.
With `Cc1cc(C)c(C(N)=O)c(Nc2cccc(Cl)c2C)n1`, the “hERG current change (%, negative = inhibition) at 10uM” value is on record as -5.35%.
`CCN1CCN(Cc2ccc(NC(=O)c3cc(NC(=O)c4cnn(-c5ccccc5)c4N)cc(OC)c3)cc2C(F)(F)F)CC1`: the “hERG current change (%, negative = inhibition) at 10uM” value is on record as 3.56%.
